# Laboratory results taken from the supplement of paper PMC8728848.
# Some of the results follow.
# B1: PfulAvr4 2 (Pseudocercospora fuligena) (protein)
# chain: HHHHHHDYKDDDDKAKPIKPFACPPKDFTTTKCQGPVDCLYANPLSCLGYIQCVCDDDACSTATPYAKSCPTGLAWVEKLKRCDGIKKSACPKKMYEGS
# Assays:
# Assay in all cases: glycan array binding signal (z-score within array); higher = stronger binding
# Details in all cases: glycan notation: IUPAC condensed, linker removed
# [1] = biological target: Neu5Ac(a2-3)Gal(b1-4)GlcNAc(b1-2)[Neu5Ac(a2-3)Gal(b1-4)GlcNAc(b1-4)]Man(a1-3)[GlcNAc(b1-4)][Neu5Ac(a2-3)Gal(b1-4)GlcNAc(b1-2)[Neu5Ac(a2-3)Gal(b1-4)GlcNAc(b1-6)]Man(a1-6)]Man(b1-4)GlcNAc(b1-4)GlcNAc
# Procedure, shortened: (§1)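 Glycan array data came from 3228 arrays in the Consortium for Functional Glycomics database, and only arrays with an available protein sequence were kept. Glycan names were put into IUPAC-condensed notation, and columns mapping to the same glycan were averaged. The binding signal is a within-array Z-score, averaged across arrays of one protein sequence run at different concentrations or buffers and across linkers. A negative Z-score can be read as non-binding.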
# [2] = biological target: Neu5Ac(a2-3)Gal(b1-4)GlcNAc(b1-2)[Neu5Ac(a2-3)Gal(b1-4)GlcNAc(b1-4)]Man(a1-3)[GlcNAc(b1-4)][Neu5Ac(a2-3)Gal(b1-4)GlcNAc(b1-4)Man(a1-6)]Man(b1-4)GlcNAc(b1-4)GlcNAc
# Procedure, shortened: as §1
# [3] = biological target: Neu5Ac(a2-3)Gal(b1-4)GlcNAc(b1-2)[Neu5Ac(a2-3)Gal(b1-4)GlcNAc(b1-6)]Man(a1-6)[Neu5Ac(a2-3)Gal(b1-4)GlcNAc(b1-2)Man(a1-3)][GlcNAc(b1-4)]Man(b1-4)GlcNAc(b1-4)GlcNAc
# Procedure, shortened: as §1
# [4] = biological target: Neu5Ac(a2-3)Gal(b1-4)GlcNAc(b1-3)Gal
# Procedure, shortened: as §1
# [5] = biological target: Neu5Ac(a2-3)Gal(b1-4)GlcNAc(b1-3)Gal(b1-3)GlcNAc
# Procedure, shortened: as §1
# [6] = biological target: Neu5Ac(a2-3)Gal(b1-4)GlcNAc(b1-3)Gal(b1-4)GlcNAc
# Procedure, shortened: as §1
# [7] = biological target: Neu5Ac(a2-3)Gal(b1-4)GlcNAc(b1-3)Gal(b1-4)GlcNAc(b1-2)Man(a1-3)[Neu5Ac(a2-3)Gal(b1-4)GlcNAc(b1-3)Gal(b1-4)GlcNAc(b1-2)Man(a1-6)]Man(b1-4)GlcNAc(b1-4)GlcNAc
# Procedure, shortened: as §1
# [8] = biological target: Neu5Ac(a2-3)Gal(b1-4)GlcNAc(b1-3)Gal(b1-4)GlcNAc(b1-3)Gal(b1-4)GlcNAc
# Procedure, shortened: as §1
# [9] = biological target: Neu5Ac(a2-3)Gal(b1-4)GlcNAc(b1-3)Gal(b1-4)GlcNAc(b1-3)Gal(b1-4)GlcNAc(b1-2)Man(a1-3)[Neu5Ac(a2-3)Gal(b1-4)GlcNAc(b1-3)Gal(b1-4)GlcNAc(b1-3)Gal(b1-4)GlcNAc(b1-2)Man(a1-6)]GalNAc
# Procedure, shortened: as §1
# [10] = biological target: Neu5Ac(a2-3)Gal(b1-4)GlcNAc(b1-3)Gal(b1-4)GlcNAc(b1-3)GalNAc
# Procedure, shortened: as §1
# [11] = biological target: Neu5Ac(a2-3)Gal(b1-4)GlcNAc(b1-3)Gal(b1-4)GlcNAc(b1-3)[Neu5Ac(a2-3)Gal(b1-4)GlcNAc(b1-3)Gal(b1-4)GlcNAc(b1-6)]GalNAc
# Procedure, shortened: as §1
# [12] = biological target: Neu5Ac(a2-3)Gal(b1-4)GlcNAc(b1-3)Gal(b1-4)GlcNAc(b1-6)[Gal(b1-3)]GalNAc
# Procedure, shortened: as §1
# [13] = biological target: Neu5Ac(a2-3)Gal(b1-4)GlcNAc(b1-3)Gal(b1-4)[Fuc(a1-3)]GlcNAc
# Procedure, shortened: as §1
# [14] = biological target: Neu5Ac(a2-3)Gal(b1-4)GlcNAc(b1-3)GalNAc
# Procedure, shortened: as §1
# [15] = biological target: Neu5Ac(a2-3)Gal(b1-4)GlcNAc(b1-3)[Neu5Ac(a2-3)Gal(b1-4)GlcNAc(b1-6)]GalNAc
# Procedure, shortened: as §1
# [16] = biological target: Neu5Ac(a2-3)Gal(b1-4)GlcNAc(b1-6)GalNAc
# Procedure, shortened: as §1
# [17] = biological target: Neu5Ac(a2-3)Gal(b1-4)GlcNAc(b1-6)[Gal(b1-3)]GalNAc
# Procedure, shortened: as §1
# [18] = biological target: Neu5Ac(a2-3)Gal(b1-4)GlcNAc(b1-6)[Neu5Ac(a2-3)Gal(b1-3)]GalNAc
# Procedure, shortened: as §1
# [19] = biological target: Neu5Ac(a2-3)Gal(b1-4)GlcNAc6S
# Procedure, shortened: as §1
# [20] = biological target: Neu5Ac(a2-3)Gal(b1-4)[Fuc(a1-3)]GlcNAc
# Procedure, shortened: as §1
# [21] = biological target: Neu5Ac(a2-3)Gal(b1-4)[Fuc(a1-3)]GlcNAc(b1-2)Man
# Procedure, shortened: as §1
# [22] = biological target: Neu5Ac(a2-3)Gal(b1-4)[Fuc(a1-3)]GlcNAc(b1-3)Gal
# Procedure, shortened: as §1
# [23] = biological target: Neu5Ac(a2-3)Gal(b1-4)[Fuc(a1-3)]GlcNAc(b1-3)Gal(b1-4)GlcNAc
# Procedure, shortened: as §1
# [24] = biological target: Neu5Ac(a2-3)Gal(b1-4)[Fuc(a1-3)]GlcNAc(b1-3)Gal(b1-4)[Fuc(a1-3)]GlcNAc(b1-3)Gal(b1-4)[Fuc(a1-3)]GlcNAc
# Procedure, shortened: as §1
# [25] = biological target: Neu5Ac(a2-3)Gal(b1-4)[Fuc(a1-3)]GlcNAc(b1-3)GalNAc
# Procedure, shortened: as §1
# [26] = biological target: Neu5Ac(a2-3)Gal(b1-4)[Fuc(a1-3)]GlcNAc(b1-6)[Gal(b1-3)]GalNAc
# Procedure, shortened: as §1
# [27] = biological target: Neu5Ac(a2-3)Gal(b1-4)[Fuc(a1-3)]GlcNAc(b1-6)[Neu5Ac(a2-3)Gal(b1-3)]GalNAc
# Procedure, shortened: as §1
# [28] = biological target: Neu5Ac(a2-3)Gal(b1-4)[Fuc(a1-3)]GlcNAc6S
# Procedure, shortened: as §1
# [29] = biological target: Neu5Ac(a2-3)Gal6S(b1-4)GlcNAc
# Procedure, shortened: as §1
# [30] = biological target: Neu5Ac(a2-3)Gal6S(b1-4)[Fuc(a1-3)]GlcNAc
# Procedure, shortened: as §1
# [31] = biological target: Neu5Ac(a2-3)GalNAc
# Procedure, shortened: as §1
# [32] = biological target: Neu5Ac(a2-3)GalNAc(b1-4)GlcNAc
# Procedure, shortened: as §1
# [33] = biological target: Neu5Ac(a2-3)[GalNAc(b1-4)]Gal(b1-4)Glc
# Procedure, shortened: as §1
# [34] = biological target: Neu5Ac(a2-3)[GalNAc(b1-4)]Gal(b1-4)GlcNAc
# Procedure, shortened: as §1
# [35] = biological target: Neu5Ac(a2-3)[GalNAc(b1-4)]Gal(b1-4)GlcNAc(b1-3)GalNAc
# Procedure, shortened: as §1
# [36] = biological target: Neu5Ac(a2-3)[Neu5Ac(a2-6)]GalNAc
# Procedure, shortened: as §1
# [37] = biological target: Neu5Ac(a2-6)Gal
# Procedure, shortened: as §1
# [38] = biological target: Neu5Ac(a2-6)Gal(b1-3)GlcNAc(b1-3)[Gal(b1-4)GlcNAc(b1-6)]Gal(b1-4)Glc
# Procedure, shortened: as §1
# [39] = biological target: Neu5Ac(a2-6)Gal(b1-4)Glc
# Procedure, shortened: as §1
# [40] = biological target: Neu5Ac(a2-6)Gal(b1-4)GlcNAc
# Procedure, shortened: as §1
# [41] = biological target: Neu5Ac(a2-6)Gal(b1-4)GlcNAc(b1-2)Man
# Procedure, shortened: as §1
# [42] = biological target: Neu5Ac(a2-6)Gal(b1-4)GlcNAc(b1-2)Man(a1-3)Man(b1-4)GlcNAc(b1-4)GlcNAc
# Procedure, shortened: as §1
# [43] = biological target: Neu5Ac(a2-6)Gal(b1-4)GlcNAc(b1-2)Man(a1-3)[Gal(b1-4)GlcNAc(b1-2)Man(a1-6)]Man(b1-4)GlcNAc(b1-4)GlcNAc
# Procedure, shortened: as §1
# [44] = biological target: Neu5Ac(a2-6)Gal(b1-4)GlcNAc(b1-2)Man(a1-3)[GlcNAc(b1-2)Man(a1-6)]Man(b1-4)GlcNAc(b1-4)GlcNAc
# Procedure, shortened: as §1
# [45] = biological target: Neu5Ac(a2-6)Gal(b1-4)GlcNAc(b1-2)Man(a1-3)[GlcNAc(b1-4)][Neu5Ac(a2-6)Gal(b1-4)GlcNAc(b1-2)Man(a1-6)]Man(b1-4)GlcNAc(b1-4)GlcNAc
# Procedure, shortened: as §1
binder,measurement,setting,value
B1,glycan array binding signal (z-score),[1],-0.21
same,glycan array binding signal (z-score),[2],-0.253
same,glycan array binding signal (z-score),[3],-0.258
same,glycan array binding signal (z-score),[4],-0.42
same,glycan array binding signal (z-score),[5],-0.328
same,glycan array binding signal (z-score),[6],-0.163
same,glycan array binding signal (z-score),[7],-0.146
same,glycan array binding signal (z-score),[8],-0.253
same,glycan array binding signal (z-score),[9],0.162
same,glycan array binding signal (z-score),[10],-0.259
same,glycan array binding signal (z-score),[11],-0.158
same,glycan array binding signal (z-score),[12],-0.409
same,glycan array binding signal (z-score),[13],-0.257
same,glycan array binding signal (z-score),[14],-0.13
same,glycan array binding signal (z-score),[15],-0.217
same,glycan array binding signal (z-score),[16],-0.202
same,glycan array binding signal (z-score),[17],1.5
same,glycan array binding signal (z-score),[18],-0.285
same,glycan array binding signal (z-score),[19],-0.19
same,glycan array binding signal (z-score),[20],-0.366
same,glycan array binding signal (z-score),[21],-0.294
same,glycan array binding signal (z-score),[22],-0.308
same,glycan array binding signal (z-score),[23],0.017
same,glycan array binding signal (z-score),[24],-0.373
same,glycan array binding signal (z-score),[25],0.545
same,glycan array binding signal (z-score),[26],-0.285
same,glycan array binding signal (z-score),[27],-0.281
same,glycan array binding signal (z-score),[28],-0.309
same,glycan array binding signal (z-score),[29],-0.482
same,glycan array binding signal (z-score),[30],-0.235
same,glycan array binding signal (z-score),[31],0.081
same,glycan array binding signal (z-score),[32],-0.242
same,glycan array binding signal (z-score),[33],-0.366
same,glycan array binding signal (z-score),[34],-0.373
same,glycan array binding signal (z-score),[35],-0.303
same,glycan array binding signal (z-score),[36],-0.254
same,glycan array binding signal (z-score),[37],-0.44
same,glycan array binding signal (z-score),[38],-0.364
same,glycan array binding signal (z-score),[39],-0.245
same,glycan array binding signal (z-score),[40],-0.318
same,glycan array binding signal (z-score),[41],0.412
same,glycan array binding signal (z-score),[42],-0.224
same,glycan array binding signal (z-score),[43],0.229
same,glycan array binding signal (z-score),[44],-0.263
same,glycan array binding signal (z-score),[45],-0.304
